In PMC9769115:

Legend:
[1] = target: T1, IscU, Fe-S cluster scaffold protein (E. coli) (E. coli), P0ACD4; assay: native MS; apo-IscU alone, aerobic; the dimer holds an inter-molecular disulfide and is almost completely lost 1 min after excess DTT; conditions: remark: other sources report otherwise
T1 chain: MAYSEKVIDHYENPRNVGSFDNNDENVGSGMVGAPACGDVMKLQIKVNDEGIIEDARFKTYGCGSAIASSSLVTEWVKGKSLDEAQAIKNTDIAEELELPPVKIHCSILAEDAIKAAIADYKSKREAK

[2] = target: T2, IscS, cysteine desulfurase (E. coli), dimer with PLP bound (E. coli), P0A6B7; assay: native MS; as isolated IscS alone; m/z range 4000-8000, charge states 17+ to 20+, deconvoluted; conditions: remark: other sources report otherwise
T2 chain: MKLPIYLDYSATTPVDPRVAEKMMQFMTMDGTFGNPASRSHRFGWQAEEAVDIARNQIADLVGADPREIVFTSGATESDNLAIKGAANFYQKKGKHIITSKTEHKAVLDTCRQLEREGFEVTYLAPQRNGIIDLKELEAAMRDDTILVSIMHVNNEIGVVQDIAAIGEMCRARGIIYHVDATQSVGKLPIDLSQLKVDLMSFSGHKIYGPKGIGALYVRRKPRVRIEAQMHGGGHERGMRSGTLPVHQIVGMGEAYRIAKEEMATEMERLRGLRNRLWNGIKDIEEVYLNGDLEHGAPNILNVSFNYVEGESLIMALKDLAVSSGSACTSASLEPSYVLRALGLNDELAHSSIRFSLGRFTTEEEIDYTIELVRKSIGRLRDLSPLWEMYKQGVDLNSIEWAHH

stoichiometry N [1]: 2
B1: IscU, Fe-S cluster scaffold protein (E. coli), P0ACD4 1-128 (natural protein)
chain: T1 chain

stoichiometry N [2]: 2
B2: IscS, cysteine desulfurase (E. coli), dimer with PLP bound, P0A6B7 1-404 (enzyme)
chain: T2 chain
modifications: here or on the partner: pyridoxal phosphate (PLP) bound to each protomer; pyridoxal phosphate (PLP) bound to each protomer

Each block holds one binder with its values, some of them ahead of it.
